This is an account of results in PubChem BioAssay AID434955 (Southern Research Specialized Biocontainment Screening …, 2010).

Some of the results follow. Further columns of the screen follow, without active or inactive calls. Most of these compounds were active or inconclusive in the main read-out, so they are no random draw.

A short description of the test: beta-lactam sensitization of Mtb H37Rv, H37Rv (AID 434955).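 Further: growth measured after seven days incubation then overnight dye step; 0% = bacteria only wells and 100% = bacteria with antibiotic.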 Conditions: M. tuberculosis H37Rv growth with meropenem, percent inhibition; measured here: primary screen without meropenem; at 25 µM.
Regarding `CC1CN(C(=O)CCC(=O)NCc2ccccc2Cl)c2ccccc2S1` (stereo not drawn), the inhibition – broadly, the change of the read-out against control, counted positive when it falls – came to 1.51%.

In the case of `COc1ccc(C(=O)C(C)Oc2cccc(NC(=O)c3cccc([N+](=O)[O-])c3)c2)cc1` (stereo not drawn), the inhibition came out at 3.24%.

`COc1cccc2c1cc1c(=O)n(CC(=O)N3CCC(C)CC3)nc(C)n12`: the inhibition amounted to 3.22%.

As to `COc1ccc(NC2CCCN(C(=O)CSc3ccccc3)C2)cc1OC` (stereo not drawn), the inhibition stood at 5.74%.

For `C=CCC1(CC=C)CCCN1C(=O)C1CCC(=O)N(CCc2ccccc2)C1` (stereo not drawn), the inhibition worked out at 3.06%.

Turning to `Cc1ccc(SC(C)C(=O)Nc2ccccc2-c2ccccc2)cc1` (stereo not drawn), the inhibition is 8.42%.

On to `CC1=NC(=O)C(N=Nc2cccc(C(=O)O)c2)N1c1ccccc1` (stereo not drawn), for which the inhibition amounted to 21%.

On to `COc1ccccc1N1CCN(C(=O)c2cc(-c3ccc(Cl)c(Cl)c3)on2)CC1`, for which the inhibition was 6.22%.

On to `COc1ccc(CCNC(=O)CN2CCOc3ccccc32)cc1OC`, for which the inhibition is -9.11%.

Take `CC(=O)Nc1cccc(/C(C)=N/NC(N)=S)c1`: the inhibition was -6.1%.

As to `CSc1c(C#N)c(N)c(C#N)c2c1COC(C)(C)C2`, the inhibition was -11.2%.

For the compound `CC1=C(C(=O)N2CCN(C(=O)c3ccco3)CC2)C2(CCC(C)CC2)OC1=O` (stereo not drawn), the inhibition was -10.8%.

In the case of `CCCn1nnnc1NC(=O)COc1ccc(Cl)cc1C`, the inhibition was determined as 37.7%.

Consider `Cc1cc(C)cc(NC(=O)c2cc(Cl)sc2Cl)c1`, for which the inhibition turned out to be 39.8%.

Turning to `O=C1c2[nH]nc(-c3ccccc3O)c2C(c2ccc(F)cc2)N1CC1CCCO1` (stereo not drawn), the inhibition was -0.5%.

As for `CCOC(=O)c1c(-c2ccccc2)oc2cc(Br)c(O)c(C=O)c12`, the inhibition was -5.4%.

For `O=S1CCCSC1c1cccnc1` (stereo not drawn), the inhibition turned out to be 1.16%.

Turning to `Cn1nc(-c2ccc(OCC(=O)NCC3CCCO3)cc2)c2ccccc2c1=O` (stereo not drawn), the inhibition is -3.14%.

`CCN(CC)C(=O)COc1ccc(-c2nnc(Nc3ccc(OC)c(C(=O)NC)c3)c3ccccc23)cc1`: the inhibition amounted to 5.29%.

In the case of `CCc1ccc(CNC(=O)c2ccc3nc(C4CCCCC4)oc3c2)nc1`, the inhibition was 89.5%.

For the compound `COc1cc(OC)cc(-c2nnc(NC(=O)CCS(=O)(=O)c3ccc(C)cc3)o2)c1`, the inhibition came out at 35.3%.

Take `C[C@H](NC(=O)c1[nH]cnc1C(=O)Nc1ccc(Cl)cc1)C(=O)OC(C)(C)C`: the inhibition was 40.9%.

As to `CCOC(=O)c1ccccc1NC(=O)C1COc2ccccc2O1` (stereo not drawn), the inhibition is 30.4%.

Take `COC(=O)CN1C(=O)C(O)=C(C(C)=O)C1c1ccc([N+](=O)[O-])cc1` (stereo not drawn): the inhibition is -2.53%.

For the compound `O=C1C(Cl)=C(N2CCCCCC2)C(=O)N1c1ccc(Br)cc1`, the inhibition worked out at 13.2%.

`Cc1ccc(S(=O)(=O)Oc2ccc(/C=N/N=C3/NC(=O)C(CC(=O)O)S3)cc2)cc1[N+](=O)[O-]` (stereo not drawn): the inhibition worked out at 2.19%.

For the compound `COc1ccc(-n2ncc3c2CC(C)(C)CC3NC(=O)c2ccoc2C)cc1` (stereo not drawn), the inhibition came out at 9.65%.

On to `O=C(NCc1ccccn1)c1cc(-c2ccc(Cl)cc2)nc2ccccc12`, for which the inhibition stood at 5.14%.

Consider `CCN(CC)S(=O)(=O)c1ccc(OC)c(NC(=O)COc2ccc3c(C)cc(=O)oc3c2)c1`, for which the inhibition is 17%.

Regarding `COc1cccc(CNC(=O)C(Cc2ccccc2)n2cccc2)c1` (stereo not drawn), the inhibition was 31.3%.

For the compound `CN(C)c1ccc(/C=N/n2c(C3CCCCC3)n[nH]c2=S)cc1`, the inhibition is 10.7%.

Take `Cc1ccc(OCC(=O)Nc2ccc3c4c(cccc24)CC3)c(C)c1`: the inhibition was determined as 14.8%.

As to `CCOc1ccc2nc(NC(=O)c3cnccn3)sc2c1`, the inhibition was found to be 34%.

With `N#CCn1cnc2c(oc3ccccc32)c1=O`, the inhibition was determined as 1.67%.

Take `Cc1c(C(c2cccc([N+](=O)[O-])c2O)c2c(C)n(C)n(-c3ccccc3)c2=O)c(=O)n(-c2ccccc2)n1C`: the inhibition was -2.97%.

For the compound `c1ccc(CCn2nnnc2CN2CCC(n3nnc4ccccc43)CC2)cc1`, the inhibition is -4.32%.

Consider `O=C(CCC1N=C2c3ccccc3N=C(SCc3ccc(Cl)cc3)N2C1=O)NCc1ccco1` (stereo not drawn), for which the inhibition was 94.5%.

`Cc1nc(CC(=O)Nc2nc(C(C)(C)C)cs2)cs1`: the inhibition was -0.68%.

For the compound `CN(C)S(=O)(=O)c1ccc(C(=O)NCc2cccs2)cc1`, the inhibition is -2.86%.

In the case of `CCCCOc1ccc(NC2=NC3(CCCCC3)N=C(N)N2)cc1`, the inhibition came out at 31.6%.

As for `O=S(=O)(c1ccc(F)cc1)c1nc(-c2ccccc2)oc1N1CCOCC1`, the inhibition is 0.17%.

With `CCn1cc(C(=O)NN)c(=O)c2cc(F)c(N3CCOCC3)cc21`, the inhibition was 2.7%.

Consider `O=C(CNC(=O)c1ccco1)NCc1nc2ccccc2[nH]1`, for which the inhibition is -5.96%.

Regarding `CCc1ccccc1NC(=O)c1ccc(F)c(S(=O)(=O)N2CCC(C(N)=O)CC2)c1`, the inhibition was -6.83%.

Consider `CC1Cc2ccccc2N1C(=O)CSc1nnc(CSc2ncccn2)n1C` (stereo not drawn), for which the inhibition came out at 5.82%.

For `O=C1CCC(C(=O)N2CCC(CO)CC2)CN1Cc1ccc(Cl)cc1` (stereo not drawn), the inhibition is 2.86%.

As to `COc1cccc2c(C)nc(Nc3nc(CSc4nnc(C)s4)cc(=O)[nH]3)nc12`, the inhibition was 11.4%.

Regarding `CN(CC(=O)NCc1ccncc1)S(=O)(=O)c1ccc(Br)cc1`, the inhibition is 6.44%.

With `COc1ccc(N=c2oc3cc(O)ccc3cc2C(=O)NCC2CCCO2)c(OC)c1` (stereo not drawn), the inhibition is -6.93%.

For the compound `CC(=O)NCCn1c(SCc2ccccc2C)nc2ccccc2c1=O`, the inhibition was -7.92%.

Turning to `O=C(NNC(=O)c1ccccc1F)c1cccc(Cl)c1`, the inhibition is -1.93%.

`CCCc1nc(SCC(=O)N2CCCCCC2)c2c(=O)n(C)c(=O)n(C)c2n1`: the inhibition is -2.54%.

Take `O=S(=O)(Cc1ccccc1)c1cnc2ccccc2n1`: the inhibition turned out to be 21.1%.

Take `COc1ccc(S(=O)(=O)Oc2cccc(C(=S)N3CCOCC3)c2)cc1`: the inhibition is 8.61%.

As for `O=C(c1ccc(OC2CCN(Cc3ccccn3)CC2)cc1)N1CCC[C@H]1CO`, the inhibition is 11.6%.

Take `COc1ccc(-c2c(O)c(C#N)c(-c3ccccc3)n(-c3ccc(OC)cc3)c2=O)cc1`: the inhibition was -12.8%.

Take `Cc1cc(Br)cc2c(C(=O)NCC3CCCO3)cc(-c3ccccc3)nc12` (stereo not drawn): the inhibition was determined as 1.89%.

In the case of `O=C(NC(Cc1ccccc1)C(=O)N1CCC2(CC1)OCCO2)C1CCCCC1` (stereo not drawn), the inhibition is -0.62%.

As to `C[C@H]1C=CC(=O)O[C@H]1c1ccccc1`, the inhibition came out at 6.93%.

Consider `O=C(CN1C(=O)COc2ccc(S(=O)(=O)N3CCCCCC3)cc21)NCc1ccc(F)cc1`, for which the inhibition is 5.82%.

Turning to `COC(=O)Cn1nc(-c2ccccc2)c2ccccc21`, the inhibition came to 31.4%.

Consider `COC(=O)c1cc(S(=O)(=O)NCc2ccc(F)cc2)cn1C`, for which the inhibition was -8.09%.

Turning to `O=C(c1cc2ccccc2oc1=O)N1CCN(c2ncccn2)CC1`, the inhibition amounted to 2.88%.

In the case of `CCC(=O)Nc1ccc2nc(SCC(=O)N3CCCC3)sc2c1`, the inhibition is 6.48%.

With `COc1ccc(-c2nnc(SCC(=O)N3CCCCC3)o2)cc1OC`, the inhibition is -6.08%.

Regarding `C=CCN1CCN(c2ccncc2S(=O)(=O)N2CCCCC2)CC1`, the inhibition is -11.5%.

Regarding `CCOc1cc(/C=N/n2c(COc3ccccc3)n[nH]c2=S)ccc1O`, the inhibition stood at 0%.

For the compound `Cc1cccc(NC(=O)C2CCN(S(=O)(=O)c3cccs3)CC2)c1`, the inhibition amounted to 5.05%.
